From publication PMC6555819
The other results are listed elsewhere or left out.

biological target: T1, RARg (Homo sapiens) (UniProt P13631); conditions: 270 nM, no RXRa, PBS pH 7.4, 2% milk, 0.02% Triton X-100, 1 mM DTT, BSA, 0.4 mg/ml salmon testes DNA; double strand, one strand shown
T1 sequence: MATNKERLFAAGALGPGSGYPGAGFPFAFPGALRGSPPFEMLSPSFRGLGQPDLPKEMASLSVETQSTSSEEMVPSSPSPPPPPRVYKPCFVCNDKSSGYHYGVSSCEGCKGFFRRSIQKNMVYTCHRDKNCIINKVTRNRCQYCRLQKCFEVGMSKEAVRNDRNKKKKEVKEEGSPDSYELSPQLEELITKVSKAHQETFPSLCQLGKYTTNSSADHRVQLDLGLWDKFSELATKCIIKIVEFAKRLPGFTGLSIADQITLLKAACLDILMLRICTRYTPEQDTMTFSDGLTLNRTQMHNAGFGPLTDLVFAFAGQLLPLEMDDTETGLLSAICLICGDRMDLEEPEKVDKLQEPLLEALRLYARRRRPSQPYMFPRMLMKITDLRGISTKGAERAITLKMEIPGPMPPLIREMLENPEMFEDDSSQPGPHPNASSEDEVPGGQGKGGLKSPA

Row | Sequence | binding signal (PBM z-score against 500 random probes)
1 | GCGCAGGAGAATCAGGCAGGGAGGTTGCAGTGAGCCGCGATTGACAGCGTAGAATGAAGG | -0.96
2 | GCTTTCTTTCTCTCTTGTCTGATTGCTCTGGCTAGAGCGATTGACAGCGTAGAATGAAGG | -1.24
3 | GCATCCCTGCAATGGCCTGCAAAGTTACAGGTTGCAGCGATTGACAGCGTAGAATGAAGG | -0.5
4 | GCAAGAACCAGTGGATTCATAAGGGTGACAGTTCAGGCGATTGACAGCGTAGAATGAAGG | 0.19
5 | GCGAGATCAAGACCATCCTGGCTAACATGGTGAAACGCGATTGACAGCGTAGAATGAAGG | -0.01
6 | GCCAAGGCAGCCAGAACTGATGATTGCACTGTGTGGGCGATTGACAGCGTAGAATGAAGG | -0.43
7 | GCACAATCTCAGCTCACTGCAAAGTTCGCCTTCCAGGCGATTGACAGCGTAGAATGAAGG | -0.06
8 | GCCCTAGTTGGACCTGTGGGAAGGGCACTACTGTTCGCGATTGACAGCGTAGAATGAAGG | -0.35
9 | GCAGGAGAAACCCACGCTGGTGTCATCACAGGTTCAGCGATTGACAGCGTAGAATGAAGG | 0.41
10 | GCGCAGTGGGTGATGATGTCACTGGTTAACGTGGCTGCGATTGACAGCGTAGAATGAAGG | 0.04
11 | GCGCAGGAGACTCACTTGTGCATGCAGGGTTGAGGCGCGATTGACAGCGTAGAATGAAGG | -0.79
12 | GCTCTCTCACTCTGCTCTTGTTCTCTCGCTCTTTCTGCGATTGACAGCGTAGAATGAAGG | -0.72
13 | GCTTCCTTTCCATGTTTAGTGCTTCCTTCAGGAGCTGCGATTGACAGCGTAGAATGAAGG | -0.24
14 | GCTACACTCTCCCAAGACTAAACCAGGAAGAAGTTGGCGATTGACAGCGTAGAATGAAGG | 0.5

biological target: T2, THRa (Homo sapiens) (UniProt P10827); conditions: 90 nM, no RXRa, PBS pH 7.4, 2% milk, 0.02% Triton X-100, 1 mM DTT, BSA, 0.4 mg/ml salmon testes DNA; double strand, one strand shown
T2 sequence: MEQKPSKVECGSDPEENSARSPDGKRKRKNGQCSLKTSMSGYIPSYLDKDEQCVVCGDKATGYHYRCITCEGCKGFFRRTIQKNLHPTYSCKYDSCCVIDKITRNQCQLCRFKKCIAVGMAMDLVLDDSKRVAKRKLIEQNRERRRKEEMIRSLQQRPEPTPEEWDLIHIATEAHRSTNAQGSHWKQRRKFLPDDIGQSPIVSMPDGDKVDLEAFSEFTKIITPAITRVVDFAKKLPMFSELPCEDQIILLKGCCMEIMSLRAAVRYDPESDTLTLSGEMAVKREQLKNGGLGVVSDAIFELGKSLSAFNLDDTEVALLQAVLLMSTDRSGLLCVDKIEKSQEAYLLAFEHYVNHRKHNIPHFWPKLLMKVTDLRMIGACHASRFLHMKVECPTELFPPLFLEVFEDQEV

Row | Sequence | binding signal (PBM z-score against 500 random probes)
15 | GCCATGTGGACTTCATTCGACCCAGCTGAGAAGACTGCGATTGACAGCGTAGAATGAAGG | 0.26
16 | GCGCAGGAGAATCAGGCAGGGAGGTTGCAGTGAGCCGCGATTGACAGCGTAGAATGAAGG | -0.35
17 | GCATGGTGATGAAAGCAAAGGAGTAATGTTTCTGTGGCGATTGACAGCGTAGAATGAAGG | -0.08
18 | GCCATCCTGTAAGACACTTCCTCTAAGAAATGGCTAGCGATTGACAGCGTAGAATGAAGG | 0.13
19 | GCTAGTGAGTGAGTTCTCACAAGAAATGGTTGTTTAGCGATTGACAGCGTAGAATGAAGG | -0.3
20 | GCCAGGGAGAGAGCCTTGCAAAGATGGAACAATCAGGCGATTGACAGCGTAGAATGAAGG | -0.23
21 | GCAAGCATAGCTTTGAGAGCAGTAAAGTGGTTCATTGCGATTGACAGCGTAGAATGAAGG | -1.27
22 | GCGAGAACAGACTAACACACACACACACACACACACGCGATTGACAGCGTAGAATGAAGG | 0.38
23 | GCATGTTAGAGCTCATGGAGAAGTGTCCTATGTGATGCGATTGACAGCGTAGAATGAAGG | -1.05
24 | GCGCCTTCTGCTACAGGGCAAAGGTGGCACACAAAGGCGATTGACAGCGTAGAATGAAGG | -0.71
25 | GCGAGAATGGTCAGTACATTCAACCATGAATTCAAGGCGATTGACAGCGTAGAATGAAGG | -0.41
26 | GCATGAGGTACTGATACATGCTACAATGTGTATGTAGCGATTGACAGCGTAGAATGAAGG | -0.8
27 | GCGCCTAGCAGTCTATACAATTCTGAAGGATGCACCGCGATTGACAGCGTAGAATGAAGG | -0.66
28 | GCCAAGACCATCCTGGCTAACACAGTGAAACCCTGTGCGATTGACAGCGTAGAATGAAGG | -0.55
29 | GCGGGAGGTGTAAGGATCCTTGTGCACTGCTTGGGAGCGATTGACAGCGTAGAATGAAGG | 0.49
30 | GCACTATCTTGTGTCTCATCTGAGACATAGATGGATGCGATTGACAGCGTAGAATGAAGG | -1.15

biological target: T3, VDR (Homo sapiens) (UniProt P11473); conditions: 270 nM, no RXRa, PBS pH 7.4, 2% milk, 0.02% Triton X-100, 1 mM DTT, BSA, 0.4 mg/ml salmon testes DNA; double strand, one strand shown
T3 sequence: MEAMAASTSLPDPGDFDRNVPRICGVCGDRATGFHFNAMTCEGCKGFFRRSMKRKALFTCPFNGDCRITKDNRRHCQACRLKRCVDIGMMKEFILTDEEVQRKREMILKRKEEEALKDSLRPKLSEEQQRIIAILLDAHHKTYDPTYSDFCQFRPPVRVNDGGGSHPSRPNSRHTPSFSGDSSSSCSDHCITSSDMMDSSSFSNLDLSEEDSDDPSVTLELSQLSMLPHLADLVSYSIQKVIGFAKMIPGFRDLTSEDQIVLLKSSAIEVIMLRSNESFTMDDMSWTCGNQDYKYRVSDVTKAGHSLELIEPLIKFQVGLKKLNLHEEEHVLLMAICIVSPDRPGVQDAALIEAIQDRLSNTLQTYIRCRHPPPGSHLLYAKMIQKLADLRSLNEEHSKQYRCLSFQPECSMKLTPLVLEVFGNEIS

Row | Sequence | binding signal (PBM z-score against 500 random probes)
31 | GCAGCTTGACTTTGGTGACATTCTTCCTTCGTCCCTGCGATTGACAGCGTAGAATGAAGG | -0.17
32 | GCATCGGGAGTGATGATAAGTAAGGCAAGCCCTGTTGCGATTGACAGCGTAGAATGAAGG | -0.45
33 | GCTATCCTGCCTGCCTCTTCCCACTCCAGCCACCTGGCGATTGACAGCGTAGAATGAAGG | 0.09
34 | GCGCTGAAACTGGATCCCTTCCTTACACCTTACACAGCGATTGACAGCGTAGAATGAAGG | 0.17
35 | GCTAGCCCTCTCAGAGGACAGAGCTAGGATAGCATGGCGATTGACAGCGTAGAATGAAGG | -0.54
36 | GCTTTGAAGACACTGAAGGAGTGAGCCATTTGGATCGCGATTGACAGCGTAGAATGAAGG | -0.39
37 | GCTATGGTTTGGCTGTGTCTCCATTCAAATCTCAACGCGATTGACAGCGTAGAATGAAGG | -0.02
38 | GCATGAGATTTCACTGTGTTAGCCAGGATGGTCTCCGCGATTGACAGCGTAGAATGAAGG | -0.61
39 | GCCCTCTGAGCCTCTTGAACCATCTGGAATGTCAATGCGATTGACAGCGTAGAATGAAGG | 0.41
40 | GCTACACTCTCCCAAGACTAAACCAGGAAGAAGTTGGCGATTGACAGCGTAGAATGAAGG | 0.48
41 | GCGAGTTTCCAGCAGATGGCCATCACAACAATACTGGCGATTGACAGCGTAGAATGAAGG | 0.22
42 | GCATGAAAGTTTAGTATGTGTAGGGTAGTGCTTCATGCGATTGACAGCGTAGAATGAAGG | 0.31
